# Reference: PubChem BioAssay AID463173 (ICCB-Longwood Screening Facility, Harvard Medical School, 2010)
# Out of some 52,000 compounds screened, about 1,700 (3.3%) were called active. Cut-off read from the data, not from the text of the source: active = survival mostly below about 52% (no sharp cut-off); inactive = mostly above about 56%. Some of the results follow.
# System: Wild type
# Assay: growth inhibition of S. aureus wild type versus tarO mutant, primary screen, teichoic acid synthesis inhibitors, RN4220, OD600 (AID 463173)
# Details: S. aureus RN4220 wild type/DeltatarO growth, OD600, 18 h, active compounds read low, screened at 18.75 µg/mL (by protocol)
row,SMILES,survival
1,CC(=O)C1=C(c2cccc([N+](=O)[O-])c2)N(C(C)=O)n2c(nnc2-c2ccc(C)cc2)S1,inactive: 85%
2,O=S(=O)(c1ccc(-c2cnc(C3CC3)o2)cc1)N1CCN(c2ccccc2F)CC1,inactive: 85%
3,CN(C)c1ccc(C(=O)N2CCN(c3ccccc3)CC2)cc1,inactive: 113%
4,COc1cc2c(cc1OC)n(CC(=O)c1ccc(C)cc1C)c(=O)n1nc(CCn3nc(C)cc3C)nc21,inactive: 74%
5,Cc1nn2c(C)c(C(=O)N3CCN(c4ccc(Cl)cc4)CC3)cnc2c1-c1ccc(F)cc1,inactive: 72%
6,COc1ccc(NC(=O)c2cc(-c3ccccc3F)no2)cc1,inactive: 88%
7,Cc1cccc(Nc2sc(C(=O)c3ccc(Cl)cc3)c(N)c2C(N)=O)c1,inactive: 45%
8,COc1cccc(CNC(=O)Cn2nc(C)c3sc4ccccc4c3c2=O)c1OC,inactive: 94%
9,O=C(NCCCN1CCN(c2cccc(Cl)c2)CC1)c1ccc2nc(Cc3ccccc3)oc2c1,inactive: 75%
10,CCOc1ccc(C2=CSC3=NCCN23)cc1Cl,inactive: 130%
11,CCn1cc(C(=O)N2CCN(c3cccc(Cl)c3)CC2)c(=O)c2cc(S(=O)(=O)N3CCC(C)CC3)ccc21,inactive: 96%
12,Cc1ccc2c(=O)cc(CSc3ncn[nH]3)[nH]c2c1C,inactive: 74%
13,CCOC(=O)c1c(C)[nH]c(C)c1S(=O)(=O)N1CCC(C(=O)N2CCN(c3ccc(F)cc3)CC2)CC1,inactive: 73%
14,Cc1cccc(C)c1OCC(=O)N(Cc1ccco1)Cc1ccco1,inactive: 81%
15,Cc1ccnc(NS(=O)(=O)c2ccc(NC(=O)c3ccc(C)c(C)c3)cc2)n1,inactive: 67%
16,C=Cc1ccc(Cn2c(C)c(CNCCc3ccc(OCC)cc3)c(C(=O)O)c2C)cc1,inactive: 97%
17,Cc1ccc2nc(NC(=O)c3ccc(S(=O)(=O)N4CCC(C)CC4)cc3)sc2c1,inactive: 74%
18,Cc1ccccc1CN1C(=O)c2ccccc2Sc2ccc(C(=O)NCCc3ccccc3)cc21,inactive: 95%
19,O/N=C1\CCCCC1C1=CCCCC1 (configuration not stated),inactive: 111%

row,SMILES,survival
1,CCCCNC(=O)c1ccc2c(c1)N=C(CC)c1ccccc1S2,inactive: 71%
2,CCc1cccc(CC)c1NC(=O)c1c(C)oc2ccc(O)c(CN3CCCC3)c12,inactive: 117%
3,NC1=NC2(CCCCC2)N(c2ccc(F)cc2)C(N)=N1,inactive: 105%
4,Cc1ccc(N2CC(NC(=O)c3cccs3)CC2=O)cc1 (configuration not stated),inactive: 87%
5,CN1CCN(CCNC(=O)c2cnn(-c3ccc(F)cc3)c2C2CCN(C(=O)OC(C)(C)C)CC2)CC1,inactive: 75%
6,O=C(CCCN1C(=O)c2cccnc2Oc2ccc(Cl)cc21)NCc1ccc(F)cc1,inactive: 72%
7,COc1ccc(C2(C(=O)O)CCCC2)cc1OC,inactive: 112%
8,Cc1ccc(N2C(=O)CSC23C(=O)N(CC(=O)NCc2ccccc2)c2ccccc23)cc1 (configuration not stated),inactive: 120%
9,O=C(Nc1ccccc1)Nc1nnc(SCC(=O)N2CCCCC2)s1,inactive: 131%
10,CC1=C(c2ccc(C)c(C)c2)S(=O)(=O)N(Cc2ccc(C(=O)Nc3cc(F)ccc3F)cc2)C1=O,inactive: 69%
11,CCOc1ccc(-n2cc(-c3ccccc3)c3c(NC4CCCC4)ncnc32)cc1,inactive: 126%
12,O=C(CN1C(=O)C2(SCC(=O)N2c2ccc(F)cc2)c2ccccc21)NC1CCCCC1 (configuration not stated),inactive: 71%
13,Cc1cc2oc(C(=O)N(Cc3ccc(N(C)C)cc3)Cc3ccco3)c(C)c2cc1Cl,inactive: 87%
14,Cc1ccccc1Nc1nc(N)c(C(=O)c2ccccc2Cl)s1,inactive: 101%
15,CS(=O)(=O)N(CC(=O)N1CCC(C(N)=O)CC1)c1cccc(C(F)(F)F)c1,inactive: 107%
16,CCn1c(SCC(=O)N2CCc3ccccc32)nnc1C(C)C,inactive: 102%
17,CCCCc1ccc(NC(=O)CSc2nc(=O)[nH]c3c2CCCC3)cc1,inactive: 81%
18,O=C(CSc1nc2c([nH]c3ccccc32)c(=O)n1-c1ccccc1F)Nc1cccc(C(F)(F)F)c1,inactive: 71%
19,CCOc1ccc(S(=O)(=O)N2CCN(Cc3nc4ccc(C)cc4o3)CC2)cc1,inactive: 73%

row,SMILES,survival
1,O=C1C(=O)N(C2CCN(C(=O)c3cccc(Cl)c3)CC2)CCN1Cc1ccc(F)cc1,inactive: 77%
2,COC(=O)CCN(c1ccccc1)C(CNS(=O)(=O)c1ccccc1)c1ccccc1 (configuration not stated),inactive: 114%
3,Cc1ccc(C)c(NC(=O)CSc2ccc3nc(-c4ccccc4)cn3n2)c1,inactive: 138%
4,CCOc1ccc(CCNC(=O)Cn2c(-c3cccs3)cc3ccccc32)cc1OCC,inactive: 74%
5,O=C(Nc1cccc(C(=O)OCc2cc(=O)n3nc(C4CC4)sc3n2)c1)c1cccc(Cl)c1,inactive: 59%
6,COc1ccc(Nc2oc(/C=C/c3ccccc3OC)nc2C#N)cc1,inactive: 86%
7,CCOc1ccc(NC(=O)c2cnc3sc(N4CCOCC4)nn3c2=O)cc1,inactive: 113%
8,COc1cccc(N2CC(NC(=O)COc3ccccc3F)CC2=O)c1 (configuration not stated),inactive: 68%
9,O=C(Nc1ccccc1Br)c1cc(CN2CCCC2)on1,inactive: 69%
10,COc1cc(C(=O)NCCc2sc(-c3cccc(F)c3)nc2C)cc(OC)c1OC,inactive: 74%
11,Cc1nc2cc(-c3cccc(F)c3)nn2c(C)c1CCC(=O)NC(C)c1ccccc1 (configuration not stated),inactive: 83%
12,CS(=O)(=O)N(CCc1ccccc1)CC(=O)O,inactive: 113%
13,CCc1ccc(CNC(=O)c2ccc(-c3nc(CSc4ccc(C)cc4)c(C)o3)cc2)cc1,inactive: 63%
14,O=C(CSc1oc(-c2ccc(F)cc2)nc1S(=O)(=O)c1ccccc1)NC1CCCCC1,inactive: 84%
15,CCSc1nnc(NC(=O)c2cc(=O)c3cc(C)ccc3o2)s1,inactive: 83%
16,COC(=O)c1c(NC(=O)C2c3ccccc3Oc3ccccc32)sc2c1CCC(C(C)(C)C)C2 (configuration not stated),inactive: 88%
17,COc1cc2c(cc1NC(=O)c1ccccc1C)n(C)c(=O)n2C,inactive: 63%
18,COc1cccc(CNC(=O)CCn2cnc3ccccc3c2=O)c1,inactive: 73%
19,COc1cccc(-c2cc(C(=O)NCc3ccc(F)cc3)no2)c1,inactive: 71%
